Legend:
LUCAP147 PDX model = assay: In vivo efficacy, LUCAP147 patient-derived xenograft; set-up: species or system NSG mice
Protocol: (§1) Cell lines or tumor tissue fragments were implanted subcutaneously into male NSG mice between 6 to 8 weeks of age. When tumors reached the appropriate tumor volume range (150-300 mm^3), animals were randomized into treatment and control groups (n=5 animals/group) and dosing was initiated. A single dose of test article was administered to the tumor-bearing mice via intravenous injection. Animals were observed daily, and tumor dimensions and body weight were measured and recorded twice weekly. Tumor volumes were measured by digital caliper and the volumes of tumors were calculated using the following formula: tumor volume=[length (mm)×width (mm)^2×0.52, where the length and width are the longest and shortest diameters of the tumor, respectively.
(§2) Monotonic (always decreasing) generalized additive model (GAM) spline curves were fit to the dose response data to illustrate the statistical difference between the effects of LO14 TOP1i DAR4 and DAR8 ADCs across the tested CDX and PDX models (FIG. 8E).
(§3) • DAR4.Ix50/DAR8.Ix50 refers to the best fit value of the lambda, wherein best is based on the r-squared value. • Diff is the difference in relative growth rate between DAR4 and DAR8. • SE=standard error

[1] = Pharmacokinetics in Athymic Nude mice; format: in vivo; conditions: single 5 mpk IV
Protocol: (§4) A study was designed to characterize the pharmacokinetics (PK) properties of LO14 unconjugated antibody, DAR4, and DAR8 TOP1i ADCs in mice. Four to six week old male immunodeficient (athymic nude, NOD Scid Gamma) or humanized mice (FcRn) were administered a single dose 5 milligrams per kilogram (mpk) intravenous injection of test reagent. Animals were monitored and 100-200 microliters of blood was collected at each timepoint (n=9 timepoints between 0 to 21 days post injection). The mice for each test group (n=9) were distributed among three cohorts to enable 6 survival bleeds and 3 terminal bleeds over the course of the study. Standard ELISA and Mass Spectrometry methods were used to quantify plasma concentration (ug/mL) of each test article over time. A standard 2 compartment model was fit to the pooled data from all the mice on study. All the individual datapoints are utilized but assuming that there is no inter-animal variability in any of the parameters (naive pooled approach). The 2 compartment model was used to calculate drug clearance (C1), the apparent volume of distribution at steady state (Vss), and half-life (T1/2).

C42 model = assay: In vivo efficacy, C42 cell-derived xenograft; set-up: species or system NSG mice
Protocol: as §1, §2, §3

LNCaP cells = assay: Cytotoxicity assay (CellTiter-Glo 2.0) in LNCaP; format: cell-based, human
Protocol: (§5) The cytotoxicity assays were designed to determine whether LO11 and LO14 TOP1i ADCs could reduce the cell viability of STEAP2 expressing prostate cancer cell lines. The assay relies on the principle that dying cells will produce less adenosine triphosphate (ATP). […] The bioluminescent signal was detected using standard plate-reading methods (SpectraMax M5). Briefly, 24 hours prior to starting the assay, human prostate cancer cells were harvested and counted described above. […] Fifty microliters of each dilution was added to the designated wells and cells were incubated for 5. After removing the treatment media, 50 microliters of RPMI1640 media without Phenol Red and 50 microliters of CTG2.0 (Promega) was added to each well. Plates were incubated for 20 minutes and then transferred to the SpectraMax M5 for luminescence detection.

[2] = Pharmacokinetics in NSG mice; format: in vivo; conditions: single 5 mpk IV
Protocol: as §4

22Rv1 cells = assay: Cytotoxicity assay (CellTiter-Glo 2.0) in 22Rv1; format: cell-based, human
Protocol: as §5

C42 cells = assay: Cytotoxicity assay (CellTiter-Glo 2.0) in C42; format: cell-based, human
Protocol: as §5

[3] = system: 19 different human prostate PDX models; assay: Therapeutic activity in 19 prostate patient derived xenografts; format: in vivo, NSG mice; conditions: models with median response from baseline of −30% or lower
Protocol: Tumor tissue fragments were implanted subcutaneously into male NSG mice between 6 to 8 weeks of age. When tumors reached the appropriate tumor volume range, tumors were resected and expanded into a cohort of study animals. When the tumors in the study animals reached the appropriate tumor volume (150-300 mm^3), animals were randomized into treatment and control groups (n=3 animals/group) and dosing was initiated. A single dose of test article was administered and animal body weights and tumor volumes were recorded as described above. The results shown in FIGS. 9A-9B are sorted in descending order of median response from baseline.
The PDX models evaluated in FIGS. 9A-9B represent tumor material from 19 distinctly different patients. […] When administered at 5 mpk, LO14 TOP1i DAR8 ADC has an ORR of 57.9% (11/19) in comparison to the 5% (1/19) ORR with Isotype ADC administered at an equivalent dose (FIG. 9A). When administered at 2.5 mpk, LO14 TOP1i DAR8 ADC has an ORR of 47.4% (9/19) in comparison to the 5% (1/19) ORR with Isotype ADC administered at an equivalent dose (FIG. 9B).

22Rv1 model = assay: In vivo efficacy, 22Rv1 cell-derived xenograft; set-up: species or system NSG mice
Protocol: as §1, §2, §3

LUCAP70 PDX model = assay: In vivo efficacy, LUCAP70 patient-derived xenograft; set-up: species or system NSG mice
Protocol: as §1, §2, §3

018-73LuCaP = assay: In vivo efficacy, 73LuCaP patient-derived xenograft; set-up: species or system NSG mice
Protocol: as §1, §2, §3

[4] = Pharmacokinetics in FcRn humanized mice; format: in vivo; conditions: single 5 mpk IV
Protocol: as §4

[5] = system: LNCAP STEAP2 CRSPR 2X KO cells; assay: Cytotoxicity assay (CellTiter-Glo 2.0) in STEAP2 knock-out line; format: cell-based, human
Protocol: as §5

B1: LO14 TOP1i DAR8 ADC: 40A3-LO14 conjugated via cleavable mal-PEG8-val-ala linker to a TOP1i warhead (SG3932), DAR 8 (conjugate)
heavy: QVQLQQSGPGLVKPSQTLSLTCAISGDSVSRNSAVWNWIRQSPSRGLEWLGRTYYRSKWYNDYAPSVKSRITINPDTSKNQFSLQLNSVTPEDTAVYYCARGLRQNQFYYYMDVWGKGTTVTVSSASTKGPSVFPLAPSSKSTSGGTAALGCLVKDYFPEPVTVSWNSGALTSGVHTFPAVLQSSGLYSLSSVVTVPSSSLGTQTYICNVNHKPSNTKVDKRVEPKSCDKTHTCPPCPAPEFEGGPSVFLFPPKPKDTLMISRTPEVTCVVVDVSHEDPEVKFNWYVDGVEVHNAKTKPREEQYNSTYRVVSVLTVLHQDWLNGKEYKCKVSNKALPASIEKTISKAKGQPREPQVYTLPPSREEMTKNQVSLTCLVKGFYPSDIAVEWESNGQPENNYKTTPPVLDSDGSFFLYSKLTVDKSRWQQGNVFSCSVMHEALHNHYTQKSLSLSPGK
light: EIVMTQSPATLSVSPGERATLSCRASQSVASNLAWYQQKPGQAPRLLIYGASTRATGIPARFSGSGSGTEFTLTISSLQSEDFAVYYCQQYNNWPFTFGPGTKVDIKRTVAAPSVFIFPPSDEQLKSGTASVVCLLNNFYPREAKVQWKVDNALQSGNSQESVTEQDSKDSTYSLSSTLTLSKADYEKHKVYACEVTHQGLSSPVTKSFNRGEC
Diff (difference in relative growth rate between DAR4 and DAR8) (LUCAP147 PDX model; 017-147LuCaP): −0.05
Ix50 (best fit value of the lambda, GAM dose response of relative tumor growth rate) (LUCAP147 PDX model; 017-147LuCaP): 0.27
dose as low as which significant tumor regressions were observed (LUCAP147 PDX model; LUCAP147 PDX, single IV dose): 1 mpk
T1/2 [1]: 12.2 days
Vss [1]: 0.126 L/kg
Cl (clearance) ([1]; 2 compartment model): 7.6 mL/day/kg
Diff (difference in relative growth rate between DAR4 and DAR8) (C42 model; 015-C42, Day Range 0-40): −0.56
Ix50 (best fit value of the lambda, GAM dose response of relative tumor growth rate) (C42 model; 015-C42, Day Range 0-40): 0.93
dose as low as which significant tumor regression was observed (C42 model; C42 model, single IV dose): 1 mpk
cytotoxic effect on cell viability, in words (LNCaP) (LNCaP cells): dose-dependent decrease in cell viability
T1/2 [2]: 12.6 days
Vss [2]: 0.104 L/kg
Cl (clearance) ([2]; 2 compartment model): 6 mL/day/kg
cytotoxic effect on cell viability, in words (22Rv1) (22Rv1 cells): dose-dependent decrease in cell viability
cytotoxic effect on cell viability, in words (C42) (C42 cells): dose-dependent decrease in cell viability
Overall response rate (ORR) ([3]; 2.5 mpk single IV dose): 47.4%
Overall response rate (ORR) ([3]; 5 mpk single IV dose): 57.9%
Diff (difference in relative growth rate between DAR4 and DAR8) (22Rv1 model; 014-22Rv1, Day Range 0-21): −4.49
Ix50 (best fit value of the lambda, GAM dose response of relative tumor growth rate) (22Rv1 model; 014-22Rv1, Day Range 0-21): 5.34
dose at which significant tumor regression was achieved (22Rv1 model; 22Rv1 model, single IV dose): 3 mpk
Diff (difference in relative growth rate between DAR4 and DAR8) (LUCAP70 PDX model; 019-70LuCaP): −0.05
Ix50 (best fit value of the lambda, GAM dose response of relative tumor growth rate) (LUCAP70 PDX model; 019-70LuCaP): 0.15
dose as low as which significant tumor regressions were observed (LUCAP70 PDX model; LUCAP70 PDX, single IV dose): 1 mpk
Diff (difference in relative growth rate between DAR4 and DAR8) (018-73LuCaP): −0.05
Ix50 (best fit value of the lambda, GAM dose response of relative tumor growth rate) (018-73LuCaP): 0.12
T1/2 [4]: 8.8 days
Vss [4]: 0.126 L/kg
Cl (clearance) ([4]; 2 compartment model): 10.7 mL/day/kg

B2: LO11 TOP1i ADC (conjugate)
heavy: QVQLQQSGPGLVKPSQTLSLTCAISGDSVSRNSAVWNWIRQSPSRGLEWLGRTYYRSKWYNDYAPSVKSRITINPDTSKNQFSLQLNSVTPEDTAVYYCARGLLQNQFYYYMDVWGKGTTVTVSSASTKGPSVFPLAPSSKSTSGGTAALGCLVKDYFPEPVTVSWNSGALTSGVHTFPAVLQSSGLYSLSSVVTVPSSSLGTQTYICNVNHKPSNTKVDKRVEPKSCDKTHTCPPCPAPEFEGGPSVFLFPPKPKDTLMISRTPEVTCVVVDVSHEDPEVKFNWYVDGVEVHNAKTKPREEQYNSTYRVVSVLTVLHQDWLNGKEYKCKVSNKALPASIEKTISKAKGQPREPQVYTLPPSREEMTKNQVSLTCLVKGFYPSDIAVEWESNGQPENNYKTTPPVLDSDGSFFLYSKLTVDKSRWQQGNVFSCSVMHEALHNHYTQKSLSLSPGK
light: EIVMTQSPATLSVSPGERATLSCRASQSVASNLAWYQQKPGQAPRLLIYGASTRATGIPARFSGSGSGTEFTLTISSLQSEDFAVYYCQQYNNWPFTFGPGTKVDIKRTVAAPSVFIFPPSDEQLKSGTASVVCLLNNFYPREAKVQWKVDNALQSGNSQESVTEQDSKDSTYSLSSTLTLSKADYEKHKVYACEVTHQGLSSPVTKSFNRGEC
cytotoxic effect on cell viability, in words (isogenic STEAP2 KO line) [5]: lack of cytotoxic effect

Reference: patent US20250041435A1, “STEAP2 ANTIBODY DRUG CONJUGATES AND USES THEREOF” (MedImmune, LLC, priority 2023, published 2025)
